Results taken from PubChem BioAssay AID1346428 (National Center for Advancing Translational Sciences (NCATS), 2018).
About 1,200 (2.5%) of roughly 48,000 compounds were called active. About 2% were inconclusive and are not listed.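 How the source made its calls: active means activation of at least 60% and not above a set upper limit (about 1 call in 100 departs from these limits); inconclusive means activation of 40% to 60%, or above that upper limit; inactive means activation under 40%.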 This is one part of the list.

target: Probable G-protein coupled receptor 32 (Homo sapiens) (UniProt O75388); test: qHTS for Agonists of Human Resolvin D1 Receptor DRV1; conditions: CHO-K1 GPR32 beta-arrestin PathHunter luminescence, 90 min; at 76.9 µM; hits give high values; zero percent set by DMSO-only wells; further: 0% is about no effect
UniProt O75388, sequence (O75388 whole entry, looked up, the tested form may be a part): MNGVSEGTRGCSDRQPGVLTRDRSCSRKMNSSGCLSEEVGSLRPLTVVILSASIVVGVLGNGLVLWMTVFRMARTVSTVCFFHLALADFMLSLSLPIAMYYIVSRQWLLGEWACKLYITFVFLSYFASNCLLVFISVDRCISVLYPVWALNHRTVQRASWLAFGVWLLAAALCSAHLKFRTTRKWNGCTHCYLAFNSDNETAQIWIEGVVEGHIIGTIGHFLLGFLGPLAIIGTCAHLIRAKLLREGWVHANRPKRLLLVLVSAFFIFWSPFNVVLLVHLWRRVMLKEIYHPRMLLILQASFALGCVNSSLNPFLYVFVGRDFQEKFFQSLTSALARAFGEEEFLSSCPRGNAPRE
How it was run: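 Agonism was scored as beta-arrestin recruitment to ProLink-fused GPR32 in stably transfected CHO-K1 cells, giving a chemiluminescent beta-Gal signal; compounds were incubated 90 min at 37 °C.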

| SMILES | activation |
| --- | --- |
| CCc1ccc(NC(=O)C2CCN(c3nn4c(=O)cc(C)nc4s3)CC2)cc1 | inactive: -15.9% |
| O=C1OC(OC(=O)c2cccnc2Nc2cccc(C(F)(F)F)c2)c2ccccc21 (stereo unspecified) | inactive: 21.8% |
| Clc1ccc(-c2noc3ncnc(NCCc4ccccc4)c23)cc1 | inactive: 23.5% |
| N#C[C@H]1C[C@H]2C[C@@H]2N1C(=O)[C@@H](N)C12CC3CC(CC(O)(C3)C1)C2 | inactive: -2.72% |
| O=C(Nc1ccc2c(c1)CCCN2C(=O)c1cccs1)c1ccccc1Cl | inactive: 3.66% |
| CC1=C(c2ccc(C)cc2)S(=O)(=O)NC1=NCCCN1CCN(c2ccc(F)cc2)CC1 | inactive: 22.5% |
| Cc1ccc(C)c(OC(=O)CSc2nnc(CNC(=O)c3ccccc3)o2)c1 | inactive: -7.87% |
| Cc1ccc(NC(=O)CN2C(=O)CCSc3ccc(S(=O)(=O)N4CCCC4)cc32)cc1C | inactive: -12.9% |
| Cc1ccc(NC(=O)CSc2nc(-c3ccco3)cc(C(F)(F)F)n2)cc1 | inactive: 25.8% |
| CCN(CC)c1ccc(NC(=O)CSc2nc(-c3cccs3)cc(C(F)(F)F)n2)cc1 | inactive: 8.06% |
| Cc1ccc(NC(=O)Nc2nnc(N(C)Cc3ccccc3)s2)c(C)c1 | inactive: -16% |
| CC(C)c1ccc(OC(=O)c2cc(-c3ccccc3)on2)cc1 | inactive: 0.349% |
| CCOc1ccc(-n2nc3ccc(NC(=O)COc4ccc(OC)cc4)cc3n2)cc1 | inactive: 12.6% |
| CCN(CC)c1ccc(NS(=O)(=O)c2cc3[nH]c(=O)c(=O)[nH]c3cc2C)c(C)c1 | inactive: -22.6% |
| Cc1cc2oc(C(=O)Nc3ccc(S(=O)(=O)N4CCCCCC4)cc3)cc(=O)c2cc1C | inactive: 2.77% |
| COc1cc(C)cc2oc(=O)c(CC(=O)NCc3cccc(Cl)c3)c(C)c12 | inactive: 5.78% |
| CCc1nc(Oc2cccc(F)c2)c2oc3ccccc3c2n1 | inactive: -6.47% |
| COC(=O)c1ccc(C2C(C(=O)Nc3ccccc3)=C(C)Nc3nc4ccccc4n32)cc1 (stereo unspecified) | inactive: 3.05% |
| CC(=O)N1CCc2c(sc3nc(SCC(C)C)n(-c4ccc(F)c(Cl)c4)c(=O)c23)C1 | inactive: -21.5% |
| CCCSc1ncc(Cl)c(C(=O)Nc2c(C(=O)Nc3ccc(C)cc3)oc3ccccc23)n1 | inactive: -6.75% |
| CC1=C(C(=O)Nc2ccccc2)C(c2cccn2C)n2ncnc2N1 (stereo unspecified) | inactive: -3.79% |
| Cc1ccc(Nc2nc(C)nc(N)c2S(=O)(=O)c2ccccc2)cc1 | inactive: 5.67% |

| SMILES | activation |
| --- | --- |
| CCN(CC)c1ccc(-c2nc(-c3ccccc3C)no2)cc1[N+](=O)[O-] | inactive: -5.19% |
| O=C(NCCc1ccccc1Cl)c1ccc2c(c1)nc1n2CCCCC1 | inactive: -17.1% |
| COc1ccc(Cn2c(=O)c3oc4ccccc4c3n(CC(=O)Nc3ccc(F)cc3F)c2=O)cc1 | inactive: -14.4% |
| Cc1cc(NC(=O)C2CCN(S(=O)(=O)c3ccc(Br)s3)CC2)ccc1Br | active: 76.4% |
| Cc1ccc(Cl)cc1N1CCN(Cc2nnc(-c3ccc4c(c3)OCO4)o2)CC1 | inactive: -12.4% |
| O=S(=O)(c1ccc2nc(N3CCN(c4cccc(Cl)c4)CC3)ccc2c1)N1CCCCC1 | inactive: -20.8% |
| Cc1ccc(CNC(=O)CSc2n[nH]c(-c3ccc(F)cc3)n2)cc1 | inactive: -19.5% |
| O=C(Nc1cccc(Cl)c1)c1cc2c(=O)[nH]c3ccccc3c2s1 | inactive: -8.27% |
| Cc1cccc(N2CCN(C(=O)CCn3c(=O)c4cccn4c4cccnc43)CC2C)c1 (stereo unspecified) | inactive: -1.62% |
| COc1cccc(C(=O)Nc2cccc(-c3cn4c(C)csc4n3)c2)c1OC | inactive: -3.75% |
| CC1(C)CCC2=C(O1)c1ccccc1C(=O)C2=O | inactive: 34% |
| Cc1cccc(-c2nc3c4ccccc4nc(N4CCN(c5cc(C)ccc5C)CC4)n3n2)c1 | inactive: -3.35% |
| CCOc1ccc(-c2nn(CC(=O)NC3CCCC3)c3c2cnc2ccc(F)cc23)cc1 | inactive: 0.222% |
| CCc1ccccc1NC(=O)c1cnc2sc(N3CCCC3)nn2c1=O | inactive: 0.8% |
| Cc1nnc(N2CCCC(C(=O)NCCc3ccc(Cl)cc3)C2)c2nn(-c3ccccc3)c(C)c12 (stereo unspecified) | inactive: -6.22% |
| COc1cccc(N2CCN(C(=O)Cn3c(-c4cccs4)cc4ccccc43)CC2)c1 | inactive: -13.7% |
| CC(=O)OCC[N+](C)(C)C | inactive: -1.75% |
| CC1=C(C(=O)Nc2ccc(C)cc2C)C(c2cccs2)n2nc(SCc3ccccc3Cl)nc2N1 (stereo unspecified) | inactive: 18.6% |
| CC(C)CCNC(=O)CN1N=C(c2ccc(Cl)cc2)CCC1=O | inactive: -19.4% |
| COc1ccc(CN2C(=O)c3ccccc3C2C(=O)NCCc2ccccc2)c(OC)c1 (stereo unspecified) | inactive: -3.88% |
| O=c1oc2ccccc2cc1-c1cn2cc(Cc3ccc(Cl)cc3)sc2n1 | inactive: -6.72% |
| CCN(Cc1ccccc1)C(=O)Cn1c(=O)n(-c2ccc(C)c(C)c2)c(=O)c2c(C)c(C)sc21 | inactive: -0.373% |

| SMILES | activation |
| --- | --- |
| Cc1cn2c(=O)cc(COC(=O)COc3ccccc3C)nc2s1 | inactive: 11.6% |
| CCOC(=O)c1c(C)[nH]c(CCC(=O)NCc2ccc(N(C)C)cc2)c1C | inactive: -14.2% |
| O=c1cc(-c2ccccc2)n2c(SCc3ccc(F)cc3)nnc2[nH]1 | inactive: -7.51% |
| CCn1cc(C(=O)N2CCN(c3ccccc3F)CC2)c(=O)c2cc(S(=O)(=O)N(C)C)ccc21 | inactive: -0.0706% |
| COc1ccc(CNc2oc(-c3ccc(COc4ccccc4C)o3)nc2C#N)cc1 | inactive: -28.4% |
| O=C(Nc1cccc(C(F)(F)F)c1)c1cc2ccc3cccnc3c2[nH]1 | inactive: 1.91% |
| Cc1ccc(-c2nc(C)c(CCNS(=O)(=O)c3ccc(F)c(C(F)(F)F)c3)s2)cc1 | active: 63.3% |
| O=C(NCCCN1CCN(c2ccc(F)cc2)CC1)c1ccc2nc(Cc3ccccc3)oc2c1 | inactive: 19.7% |
| CCOc1ccc(CN2CCc3nc(Nc4ccc(OC)cc4OC)ncc3C2)cc1 | inactive: -2.3% |
| CCN(CC)c1nc2ccccc2nc1C(=O)Nc1cccc(C(C)=O)c1 | inactive: -17.5% |
| COc1ccc(NC(=O)c2c(-c3ccc(C)cc3)nnc3ccccc23)c(OC)c1 | inactive: -25.9% |
| Cc1ccc2sc(NC(=O)c3ccc4c(c3)OCCO4)nc2c1C | inactive: -16.2% |
| COc1ccc2c(c1)c1c(c(=O)n(-c3ccc(F)c(Cl)c3)c(=O)n1Cc1ccccc1C)n2C | inactive: 23.6% |
| CCN(CC)CCCNC(=O)c1nn(C)c2c1CS(=O)(=O)c1ccccc1-2 | inactive: 1.39% |
| Cc1ccccc1Cn1c(CN2CCC(C(=O)NCCc3ccccc3)CC2)cc2ccccc21 | inactive: -48.3% |
| CCC(=O)Nc1cccc(C(=O)OCc2cc(=O)n3nc(CC)sc3n2)c1 | inactive: -2.08% |
| COc1ccc2c(c1)c1c(c(=O)n(CCc3ccccc3)c(=O)n1Cc1ccc(F)cc1)n2C | inactive: -11.9% |
| CCSC1=NC2(CCN(C(=O)NC3CCCCC3)CC2)N=C1c1ccc(Cl)cc1 | inactive: 8.72% |
| O=[N+]([O-])c1ccc(/C=N\O)o1 | inactive: 22.5% |
| Cc1ccc(NC(=O)c2sc3nc4c(cc3c2N)CN(Cc2ccccc2)CC4)cc1 | active: 116% |
| Cc1oc2ncn(C)c(=O)c2c1C(=O)N1CCN(c2ccccc2F)CC1 | inactive: -7.61% |
| CCc1nn(Cc2ccc(Cl)cc2)c(=O)c2cc3cc(C)ccc3n12 | inactive: -24.4% |

| SMILES | activation |
| --- | --- |
| Cc1cccc(NS(=O)(=O)c2ccc3c(c2)C(C)(C)C(=O)N3C)c1 | inactive: -2.65% |
| Fc1ccc(-c2noc3ncnc(NCCCN4CCN(c5ccccc5)CC4)c23)cc1 | inactive: 27.7% |
| Cc1ccc2c(=O)cc(C(=O)Nc3sc4c(c3C(=O)NCc3cccnc3)CCCC4)oc2c1C | inactive: -0.584% |
| COc1ccc(Cn2ccc3nc(C)c(C(=O)NCc4ccc(F)cc4)cc3c2=O)cc1 | active: 62.5% |
| O=c1oc2c(CN3CCN(CCO)CC3)c(O)ccc2cc1-c1ccccc1 | inactive: 9.58% |
| COc1ccc(C(=O)NCC(c2ccc(N(C)C)cc2)N2CCc3ccccc32)c(OC)c1 (stereo unspecified) | inactive: -31.2% |
| COc1cccc(NC(=O)CC2NCCNC2=O)c1 (stereo unspecified) | inactive: -9.37% |
| Cc1ccc(NC(=O)CCc2c(C)nc3cc(-c4ccccc4)nn3c2C)cc1F | inactive: 16.9% |
| COc1ccc(-c2nc3c(C#N)c[nH]n3c2NC2CCCC2)c(OC)c1 | inactive: -24% |
| COc1ccc(S(=O)(=O)NCC(c2ccco2)N2CCOCC2)cc1OC (stereo unspecified) | inactive: 2.65% |
| CCc1cc(C(=O)Nc2cnn(Cc3ccccc3C)c2)no1 | inactive: 18.3% |
| COc1ccc(CNC(=O)C2CCN(c3nc4ccccc4[nH]3)CC2)cc1OC | inactive: -8.99% |
| O=C(Nc1sc2c(c1C(=O)NCC1CCCO1)CCC2)c1cc(=O)c2ccccc2o1 (stereo unspecified) | inactive: -11.6% |
| CCCCCNC(=O)CCCCCn1c(=O)[nH]c2ccsc2c1=O | inactive: 8.89% |
| COCCCNc1oc(-c2ccc(COc3ccc(Cl)cc3)o2)nc1C#N | inactive: -4.32% |
| COc1ccc(Cn2c(=O)c3oc4ccccc4c3n(Cc3ccc(Cl)cc3)c2=O)cc1 | inactive: -1.65% |
| OCCN1C[C@H](O)[C@@H](O)[C@H](O)[C@H]1CO | inactive: -92.7% |
| CCOc1ccc(C2CC(=O)Nc3c2c(=O)nc(SCc2ccccc2C)n3C)cc1OC (stereo unspecified) | inactive: -14.6% |
| CCn1cc(C(=O)OCC(=O)Nc2cccc(C(C)=O)c2)c(=O)c2ccc(C)nc21 | inactive: 11% |
| CCOC(=O)c1c(S(=O)(=O)N2CCCC(C(=O)Nc3cccc(C)n3)C2)c(C)n(C)c1C (stereo unspecified) | inactive: 8.02% |
